Sequences with one replicate were seen in a single cluster, so their values are uncertain.
System: ATP
Assay: switch fluorescence ratio, 500 uM ATP over buffer (Cy3 cluster intensity, sum of 5 cycles each) (fold (ratio)); higher = stronger signal-on switching upon ATP binding; sequences stand for … in TCGTCGGCAGCGTCAGATGTGTATAAGAGACAGTTTTTTTTTTTTTTTTTTTTTTTTT…TC
Settings: aptamer strand: ATP DNA aptamer (quencher-CACCTGGGGGAGTATTGCGGAGGAAGG + anchor), 100 nM annealed; ATP concentration: 500 uM; one replicate
How it was run: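 Cy3-labelled switching-strand clusters on a modified Illumina MiSeq flow-cell were annealed to 100 nM quencher-labelled ATP aptamer and imaged first in selection buffer, then after 15 min with 500 uM ATP at 22 °C. NaOH stripping and re-annealing separated each of five buffer/ATP cycles, and clusters outside 100-1000 RFU were excluded. The fluorescence ratio sums target-cycle Cy3 intensity over buffer-cycle Cy3 intensity per cluster and averages it per switch-domain sequence.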
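Also: ATP exposure 15 min at 22 °C before imaging.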

Sequence	switch fluorescence ratio
CTTAGCGGAA	1.01
ATTGGAGAGA	1.03
CTGCGCTGGT	1.11
GCGAGAATTT	0.94
GCAAGTTCCT	1.06
GCTAGTAATT	0.995
ACCGTTCCTT	1.04
GGAATATCAT	0.997
CTAGTTGGAA	0.987
ATTCGGACG	1.03
AAGAGTTTGA	0.955
GTTGGGAGAC	0.987
ATAACCTTGC	3.26
CCATTGACGC	1.2
GTGCCTCAAC	1.03
TAGTCTACAG	1.04
AATGGTATG	0.99
TGCGCGGTGT	1
ATGTCAGCG	1
GGGACATTGG	0.98
TGGCGGTTCG	1.02
AAGCCCTCAA	1.02
CATCGTGCGT	0.963

Sequence	switch fluorescence ratio
ATAACGCCTG	1.02
AGTGAGGCCA	0.957
CAATTGTGTT	1.07
GGTTCAATCA	0.983
CCTATATCTA	0.999
TCACCATTAT	1.01
TCGATGCTAT	1.58
ATCTGAAAAA	0.978
CCCTCATTAT	1.01
CCGACTTTCC	2.54
AAACTAGAAT	1.02
TGGTAATCCG	1
AGGGCTAAGT	0.944
TCTCAATGTT	1.04
CGTGCAACC	1.14
GTTCAGCGCT	1.03
ATTGCGGCTT	1.01
TTATGATTGC	0.975
AGTGCGCGGT	0.991
AGAGATAATA	1.04
CAAATATGAC	1.04
GGTCAAGGCA	1.03
TTTGGGG	0.975

Sequence	switch fluorescence ratio
CGAAGTAAGA	1.38
TCGATAGGCG	1.01
AGTCACGAAT	1.01
TGGAGTGACC	0.987
GGTATAGG	0.98
GAATTCAAAT	1.01
ATCGGGATCG	0.988
AGAAGCGCGT	1.03
TGTATGCCGA	1
AGGCGAGAGA	1.02
CGGCGACAAA	1.02
TATACCGTAG	1.16
AAGGTCTTCT	1.03
CTTTAACTGT	0.998
GATCTAATCG	1.01
ATAGAAGTAA	1.06
CGAGTATGAG	1.01
GATACACTTT	0.993
GGGTCCTTGG	0.995
TATCACCTCC	1.24
CCAATAGTAT	0.935
AAACCGTGGG	0.984
GGAGTAGAGC	1.11

Sequence	switch fluorescence ratio
ATAAAAACTT	0.952
TGAAGCCGGG	0.928
TCTCAATG	1.05
AAGGTCTGG	0.978
ACGGCAGGGC	1.06
CAGCCTGCTA	1.05
ATTACAGGTC	1.07
GCCCCTGCAT	1.02
CGCGTGGAGC	1.06
CCGGTATTGC	2.23
GTGGTGTTAT	0.933
GTCTCAGGTG	1.03
AGCAAGCACC	1.79
TCGATAGGAG	1.02
AATATGTGAA	1
ATGTTCCGTG	1.02
TCCTACATGA	1.12
CACACTAATA	1.08
GATTCGCTGG	1
GAATTGGGGT	1.03
GCATGGTATT	1.01
CTGTACACGT	1.06
CCTACGGTTT	1.61

Sequence	switch fluorescence ratio
TAACCGGTGG	0.966
GGAACGCCAT	1.08
TAGATTCCCA	0.994
GGTAAGATGC	1.07
CCCGGTATGG	0.986
AAATGGCGCT	0.987
TCTAAGGACA	1
GGCCTCACGA	1.05
TTTCTTAGTA	0.983
CATTTAAGTG	1.03
TTAGGCCCG	0.983
CTGGAGACTT	1.04
AAGGTAAGCG	1
AGTATTCATC	1.01
CGACTCAATG	1.28
CTATTCCAGT	1.03
CGTAATAGGG	1.04
TTTACTAGGG	0.988
AGGAGGTGTT	1.01
TAATGAGATA	1.04
AGAAGAAGCA	0.966
GGAAGCCGGC	1.05
CAAAATATCT	1.05

Sequence	switch fluorescence ratio
ATGGTGCTTA	1.01
TATTATTAAC	1.03
AAAGAGTGCT	0.976
TTGCTAGGCA	1
AACAGAGAGC	1.04
TTGTCGGCCC	1.01
GTCGCTAAGC	1.09
TGATAACCAG	0.98
CATAGTAGCT	0.991
ACAAAGTCGC	1.01
GCCCGTCGTT	0.987
ATGAATTGTG	1.03
TATCGTTTTG	1.01
CGTGTAAGGT	0.927
CTATAAGTTT	0.995
ACTCTCTATT	0.969
ACGTCAGTGC	1.21
TGTTATACGA	1.05
TACGAATAAG	1.03
GTCGGCGGTG	0.979
GCTTGATGAT	1.01
AAATTTACGC	1.09
CCTTGGTTTC	1.09

Sequence	switch fluorescence ratio
GCAACGTGCC	1.02
CTGATCCTTT	1
GGGCCTTAGT	1.01
CGTGTTGCGG	0.995
ACAAGTTAAA	0.956
ACGAGAATCA	0.987
GGGATGTTGA	1.05
TCCGTTATTC	1.43
TTGTGGCAGT	1.02
AAAATAAAGC	0.97
TCAATTTATG	1
CCAAGCACTA	3.49
TGACTTCCGG	0.992
TAGTTGGCTG	1.07
CACAACACTT	1.34
TAGGGGAGTC	1.01
GCTGTTCCGT	1
TCCGGCACTA	1.39
CAAGTGGTTA	0.961
